Test results as given in the antibiotic and cytotoxicity screens of Wong et al. (2023).
Some of the results follow.

How the values were obtained:
HSkMC = human skeletal muscle cells; experiment: cytotoxicity call (relative viability < 0.9); settings: 10 µM
HepG2 = experiment: cytotoxicity call (relative viability < 0.9); settings: 10 µM
S. aureus RN4220 = experiment: growth inhibition call (relative growth <= 0.2); settings: 50 µM

Row | SMILES | cytotoxicity call (HSkMC) | cytotoxicity call (HepG2) | growth inhibition call (S. aureus RN4220)
1 | Cc1cccc(CN(C)C[C@@H]2Oc3ncc(-c4cc5ccccc5o4)cc3C(=O)N([C@H](C)CO)C[C@@H]2C)c1 | inactive | active | inactive
2 | C[C@@H]1CN([C@@H](C)CO)C(=O)c2cc(C#Cc3ccccn3)cnc2O[C@H]1CN(C)C(=O)c1cnccn1 | inactive | inactive | inactive
3 | O=C1NCc2ccccc21 | inactive | inactive | inactive
4 | COc1ccc(S(=O)(=O)N(C)C[C@H]2Oc3c(NC(=O)NC(C)C)cccc3C(=O)N([C@H](C)CO)C[C@@H]2C)cc1 | inactive | inactive | inactive
5 | Cc1ccc(S(=O)(=O)Nc2cccc3c2O[C@H](CN(C)S(=O)(=O)c2c(C)noc2C)[C@@H](C)CN([C@H](C)CO)C3=O)cc1 | inactive | inactive | inactive
6 | CNC[C@H]1Oc2ccc(NS(=O)(=O)c3cn(C)cn3)cc2CC(=O)N([C@@H](C)CO)C[C@@H]1C | inactive | inactive | inactive
7 | Cc1ccc2oc(=O)cc(Cl)c2c1 | inactive | inactive | inactive
8 | CC(=O)Nc1ccc(C(=O)O)cc1 | inactive | inactive | inactive
9 | Cc1noc(C)c1S(=O)(=O)N(C)C[C@H]1OCCCC[C@@H](C)Oc2ccc(N(C)C)cc2C(=O)N([C@@H](C)CO)C[C@@H]1C | inactive | inactive | inactive
10 | O=C(CN1CCOCC1)NCC[C@H]1CC[C@@H](NC(=O)Nc2ccccc2)[C@@H](CO)O1 | inactive | inactive | inactive
11 | COc1ccc2c3c([nH]c2c1)[C@@H](CO)N(C[C@]13CCN(CC1)C(=O)Nc1c(noc1C)C)C(=O)Nc1ccc(cc1)F | inactive | inactive | inactive
